From PubChem BioAssay AID1956 (SRMLSC, 2009)
The list shows a part of the results. The main result of the screen is listed elsewhere. These columns were measured beside it and carry no call.

Experiment: enhancers of HSV replication in host cells, fold increase, host cell viability (AID 1956); note: tested in PC3 cells
Details: HSV replication augmentation in cells; fold increase: measured here: primary screen fold increase 10 uM, at 10 µM, stronger effect = higher value; viability: measured here: host cell viability series, at 25 µM, stronger effect = lower value

Row | SMILES | fold increase | viability [%]
1 | CC(=O)Nc1ccc2nc3c(=O)n(C)c(=O)n(C)c3nc2c1 | 1.42 | 90.7
2 | CCC(=O)Nc1cccc(-c2cn3ccccc3n2)c1 | 1.32 | 93.6
3 | CCOC(=O)C1=C(C)NC(=O)C1CC(=O)Nc1ccccc1 (configuration not stated) | 2.29 | 92.9
4 | COc1ccc2cc3cc(C(=O)Nc4ccccc4N4CCN(C)CC4)oc3nc2c1 | 1.15 | –
5 | N#CC1(C#N)C(c2ccccc2)OC23CCCCC2C1(C#N)C(=N)O3 (configuration not stated) | 1.39 | 99.8
6 | O=C(Cn1cccc1)N1CCN(C(c2ccccc2)c2ccccc2)CC1 | 1.4 | 99.4
7 | N#C/C(=C/c1ccc(N2CCCCC2)o1)C(=O)Nc1ccc(Cl)cc1 | 6.56 | 92.9
8 | COCCN1C(=O)/C(=C/c2ccc(N3CCCC3)cc2)SC1=S | 9.62 | 91
9 | Cc1nn(C)c(C)c1N1C(=O)c2cccc3c(N)ccc(c23)C1=O | 7.7 | 96.2
10 | CCN(CC)CCN1CCn2c3c(c4cc(C)ccc42)CCCC31 (configuration not stated) | 1.49 | 81.4
11 | COc1ccc(C(=O)Nn2c(SCC(=O)NC3CCCC3)nc3ccccc3c2=O)cc1 | 1.35 | 93
12 | CCOC(=O)C1CCN(CCC(=O)Nc2ccccc2Cl)CC1 | 1.33 | 91
13 | COCCn1cc(C(=O)N2CCC(C)CC2)c2c3ccccc3n(C)c2c1=O | 1.37 | 109
14 | CCOC(=O)c1c(NC(=O)c2nn(CC)cc2Br)sc2c1CCCCC2 | 1.39 | 80.8
15 | CCN(CC)c1ccc2cc(-c3nnc(-c4ccncc4)o3)c(=O)oc2c1 | 6.24 | –
16 | O=C(Nc1nnc(COc2ccc(Cl)cc2)s1)c1cccs1 | 1.18 | –
17 | Nc1nc(Br)c2c(F)cccc2c1-c1ccc(F)cc1 | 1.36 | 101
18 | O=C(c1cccs1)N(Cc1ccco1)C1CCS(=O)(=O)C1 (configuration not stated) | 1.36 | 101
19 | CCN(CC)c1ccc2cc(-c3nnc(-c4ccccc4)o3)c(=O)oc2c1 | 2.02 | 91.6
20 | CCCN(CCC)c1ccc(/C=C/c2ccc3cc(OCC)ccc3n2)cc1 | 1.55 | –
21 | CCOc1ccc(C2CC(c3ccc(CC)cc3)Nc3nc(N)nn32)cc1 (configuration not stated) | 1.34 | 97.1
22 | CCOC(=O)c1ccc(NC(=S)Nc2ccccn2)cc1 | 1.25 | –
23 | CC(=O)CSc1nc2cc3c(cc2cc1C#N)OCCO3 | 1.54 | 56
24 | CCN(CC)c1ccc2cc(C(N)=O)c(=N)oc2c1 | 2.74 | 96.6
25 | CCCCOC(=O)CCN1C(=O)/C(=C2\SC(=S)N(CCC(=O)OCCCC)C2=O)SC1=S | 1.49 | –
26 | CCOC(=O)C1=NN(C(=O)c2ccccc2)C(O)(c2ccc(C)cc2)C1 (configuration not stated) | 1.32 | –
27 | COc1ccc(N2C(=O)CC(N(CCc3ccccc3)C(=O)c3ccccc3)C2=O)cc1 (configuration not stated) | 1.37 | 98.9
